# The RNAGym collection of RNA variant scans (doi:10.1101/gad.245936.114)
# This sample is rich in variants without activity.
# B1: tRNA (parent)
# chain: CUCUCGGUAGCCAAGUUGGUUUAAGGCGCAAGACUUUAAUUUAUCACUACGAAAUCUUGAGAUCGGGCGUUCGACUCGCCCCCGGGAGAUUUUUUCCUCGAGCAA
# Variants of: B1
# Experiment: nonsense suppression (GFP-seq) (ratio to wild type); higher = more function; SUP4oc tRNA, yeast GFP reporter sort-seq
# Summary of the method: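 Each variant's nonsense suppression (GFPSEQ) is a cell-share-weighted bin median GFP/RFP relative to the unmutated parent tRNA. Yeast with genome-integrated tRNA variants from a ~3% random-mutation library, a galactose-driven GFP ochre reporter and RFP were grown in raffinose/galactose medium with 80 mg/L adenine, then sorted into GFP/RFP bins for Illumina sequencing. Variants needed ≥100 reads and ≥30 cells.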
row,Variant,nonsense suppression
1,C1A C34G G66A,≤ 0.026
2,C1A C34U A62G,≤ 0.026
3,C1A C56U G65A,≤ 0.026
4,C1A C64A U76A,≤ 0.026
5,C1A C72G,≤ 0.026
6,C1A C72U,≤ 0.026
7,C1A C75A,≤ 0.026
8,C1A C75A G88C,≤ 0.026
9,C1A C79G,≤ 0.026
10,C1A C79U,≤ 0.026
11,C1A C80U,0.0314
12,C1A C81U,0.045
13,C1A C82A,≤ 0.026
14,C1A G6A U17A U58C G69U,≤ 0.026
15,C1A G6A U55A A60U A62U,≤ 0.026
16,C1A G6U U58G,≤ 0.026
17,C1A G7A C72U C80G,≤ 0.026
18,C1A G7C,≤ 0.026
19,C1A G7U C11G U17G G25U,≤ 0.026
20,C1A G10C C81A,≤ 0.026
21,C1A G10U A13U U16A,≤ 0.026
22,C1A G10U A23C U55A,≤ 0.026
23,C1A G10U A62U U76C,≤ 0.026
24,C1A G10U G18C G19A U55G,≤ 0.026

row,Variant,nonsense suppression
1,C1A G15U A74C,≤ 0.026
2,C1A G18A,≤ 0.026
3,C1A G18C A60U,≤ 0.026
4,C1A G18C A62U C64A,≤ 0.026
5,C1A G18C U35G,≤ 0.026
6,C1A G18U A24U A33G U63A G65A,≤ 0.026
7,C1A G19A C82G,≤ 0.026
8,C1A G19A C82U,≤ 0.026
9,C1A G25C,≤ 0.026
10,C1A G25U A33U,≤ 0.026
11,C1A G26C,≤ 0.026
12,C1A G26U G65U C80G,≤ 0.026
13,C1A G28A A87C,≤ 0.026
14,C1A G28A U71C,≤ 0.026
15,C1A G59C C79A,≤ 0.026
16,C1A G61C G78A A87G,≤ 0.026
17,C1A G65C G85U,≤ 0.026
18,C1A G66C,≤ 0.026
19,C1A G67C C72A,≤ 0.026
20,C1A G69A C82A,≤ 0.026
21,C1A G69A G73C U76A,≤ 0.026
22,C1A G69U,≤ 0.026
23,C1A G73C,≤ 0.026
24,C1A U2A G7U A31C,≤ 0.026

row,Variant,nonsense suppression
1,C1A U2A U4A A30C C75U,≤ 0.026
2,C1A U2C C3G,≤ 0.026
3,C1A U2C U16G A24C G61C G85C,≤ 0.026
4,C1A U2G,≤ 0.026
5,C1A U2G G19A G32C A89G,≤ 0.026
6,C1A U4C C11U C34A,≤ 0.026
7,C1A U4G G15A,≤ 0.026
8,C1A U8A C12U U57A C75A,≤ 0.026
9,C1A U16C G32U G65A,≤ 0.026
10,C1A U17C C77A G84A,≤ 0.026
11,C1A U17G C79A,≤ 0.026
12,C1A U20G,≤ 0.026
13,C1A U21A A24U A33G,≤ 0.026
14,C1A U21C,≤ 0.026
15,C1A U21C G73A,≤ 0.026
16,C1A U21G C80G G85U,≤ 0.026
17,C1A U35A G65C G69C C81U C82G,≤ 0.026
18,C1A U35A G73U G84C,≤ 0.026
19,C1A U35A U55G,≤ 0.026
20,C1A U35G,≤ 0.026
21,C1A U35G U57C C82U A87G,≤ 0.026
22,C1A U55A,≤ 0.026
23,C1A U57A A62U,≤ 0.026
24,C1A U57A G86C,≤ 0.026

row,Variant,nonsense suppression
1,C1A U57G,≤ 0.026
2,C1A U57G U70A G86U,≤ 0.026
3,C1A U63A G66C,≤ 0.026
4,C1A U70C C79A,≤ 0.026
5,C1A U70C G78C,≤ 0.026
6,C1G A9C G19A,≤ 0.026
7,C1G A9C G26C G73A,≤ 0.026
8,C1G A9G C27U,≤ 0.026
9,C1G A9U C29A C83U,≤ 0.026
10,C1G A9U G15U C72G C79G,≤ 0.026
11,C1G A9U G15U G78A,≤ 0.026
12,C1G A13C U58A C72U U76G,≤ 0.026
13,C1G A13U U16A G19U C56A C82A,≤ 0.026
14,C1G A23C,≤ 0.026
15,C1G A23G G26U G61A,≤ 0.026
16,C1G A24U U63A,≤ 0.026
17,C1G A30G C34G,≤ 0.026
18,C1G A30U,≤ 0.026
19,C1G A30U A62U,≤ 0.026
20,C1G A31U,≤ 0.026
21,C1G A31U U70A G84U,≤ 0.026
22,C1G A31U U76C,≤ 0.026
23,C1G A33C C68G A74G,≤ 0.026
24,C1G A54G,≤ 0.026

row,Variant,nonsense suppression
1,C1G A54U U76A,≤ 0.026
2,C1G A60C C64A,≤ 0.026
3,C1G A60G,≤ 0.026
4,C1G A60G A62G G85A G86C,≤ 0.026
5,C1G A60G G66A U70C,≤ 0.026
6,C1G A74G,≤ 0.026
7,C1G A74U G86A,≤ 0.026
8,C1G A89G,≤ 0.026
9,C1G A89U,≤ 0.026
10,C1G C3A A54G,≤ 0.026
11,C1G C3A U35G,≤ 0.026
12,C1G C3A U70C,≤ 0.026
13,C1G C3G A9G C56A G59A A62C,≤ 0.026
14,C1G C3G G25A C27U,≤ 0.026
15,C1G C3G G78A G84A,≤ 0.026
16,C1G C3U U16G G65A,≤ 0.026
17,C1G C5A C12U,≤ 0.026
18,C1G C5G,≤ 0.026
19,C1G C5G A31C G73A,≤ 0.026
20,C1G C5G U70C,≤ 0.026
21,C1G C5U A24G A54G G59U,≤ 0.026
22,C1G C5U U70A A89C,≤ 0.026
23,C1G C11G,≤ 0.026
24,C1G C11G C64U,≤ 0.026

row,Variant,nonsense suppression
1,C1G C11G G15U U17C A23U U63C,≤ 0.026
2,C1G C11U A24G,≤ 0.026
3,C1G C11U G69U,≤ 0.026
4,C1G C12G A13G U17A A60U G84C,≤ 0.026
5,C1G C12G A13G U17A U57C,≤ 0.026
6,C1G C12G A24G G26A,≤ 0.026
7,C1G C12G C56A G61U U71G U76C,≤ 0.026
8,C1G C12U,≤ 0.026
9,C1G C12U G15U A30C A31C,≤ 0.026
10,C1G C27G U63A A87U,≤ 0.026
11,C1G C27U U57C G61A U70A,≤ 0.026
12,C1G C29A,≤ 0.026
13,C1G C29A U55C C68A,≤ 0.026
14,C1G C29G,≤ 0.026
15,C1G C29U G66C G85C,≤ 0.026
16,C1G C34G G65A A89U,≤ 0.026
17,C1G C34U,≤ 0.026
18,C1G C34U U55A G67A,≤ 0.026
19,C1G C56A U57C C68G U71C,≤ 0.026
20,C1G C56A U58G,≤ 0.026
21,C1G C64A,≤ 0.026
22,C1G C64U C79G,≤ 0.026
23,C1G C80G,≤ 0.026
24,C1G C81A,≤ 0.026

row,Variant,nonsense suppression
1,C1G C83A,≤ 0.026
2,C1G G6C G19C,≤ 0.026
3,C1G G6C G25C G32U A62G U76C C80A,≤ 0.026
4,C1G G6C G66A U70G,≤ 0.026
5,C1G G6U,≤ 0.026
6,C1G G6U A14U C29G,≤ 0.026
7,C1G G6U A31C G73C C79U,≤ 0.026
8,C1G G7A G25A A31U U63C C80A,≤ 0.026
9,C1G G7A U17C C83A,≤ 0.026
10,C1G G7C A54G,≤ 0.026
11,C1G G10A A23C A33U C64A,≤ 0.026
12,C1G G10C A30G G32U C80A,≤ 0.026
13,C1G G10U A54G C68A,≤ 0.026
14,C1G G10U U63C C64G,≤ 0.026
15,C1G G15C,≤ 0.026
16,C1G G15U,≤ 0.026
17,C1G G18A A31G,≤ 0.026
18,C1G G18C A23G A31U,≤ 0.026
19,C1G G18C C68U G88U,≤ 0.026
20,C1G G18C G25U A60C,≤ 0.026
21,C1G G18U G67C,≤ 0.026
22,C1G G18U G73A,≤ 0.026
23,C1G G19C A87C,≤ 0.026
